# Data reported in a collection of fitness landscapes (doi:10.1016/j.celrep.2020.107928).
# Over roughly 81,000 sequences, “one-hybrid fitness for binding NBS DNA” has its median near -0.1; the highest 2% begin near 0.36. The list shows a part of the results.
# B1: Caulobacter ParB omega fusion; a variant is named by its letters at X, in order, B8GW30 (parent)
# chain: MESVVVGEPGMSEGRRGLGRGLSALLGEVDAAPAQAPGEQLGGSREAPIEILQRNPDQPRRTFREEDLEDLSNSIREKGVLQPILVRPSPDTAGEYQIVAGERAWRAAQRAGLKTVPIMVRELDDLAVLEIGIIENVQRADLNVLEEALSYKVLMEKFERTQENIAQTIGKSXSHVANXMRLLXLPDEVQSYLVSGELTAXHARAIAAAADPVALAKQIIEGGLSVRETEALARKAPNLSAGKSKGGRPPRVKDTDTQALESDLSSVLGLDVSIDHRGSTGTLTITYATLEQLDDLCNRLTRGI
# Variants of: B1
# Test: one-hybrid fitness for binding NBS DNA (the Noc-binding site; scaled: cognate 1, non-cognate 0); higher = stronger binding
# Conditions: with NBS DNA site
# Outline: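 In E. coli USO, a HIS3 reporter with its site placed 19 bp from the promoter was used to select Caulobacter ParB variants randomised at four specificity codons. Growth lasted 48 hours at 37°C on histidine-free M9 containing 0.1 mM IPTG and 5 mM 3-AT. Fitness was taken as the log change in variant-to-wild-type read ratio from Illumina sequencing of pre- and post-selection plasmids, rescaled between the non-cognate and cognate sites.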
row,Variant,one-hybrid fitness for binding NBS DNA
1,TRYS,≤ 0.2
2,KCLT,≤ 0.2
3,SGSK,≤ 0.2
4,QPHC,≤ 0.2
5,IRTI,≤ 0.2
6,MGTY,≤ 0.2
7,NVCS,≤ 0.2
8,WREM,≤ 0.2
9,PRNR,≤ 0.2
10,YLIR,≤ 0.2
11,TQKS,≤ 0.2
12,RTLV,≤ 0.2
13,ESIG,≤ 0.2
14,IDPC,≤ 0.2
15,PRWY,≤ 0.2
16,RNDQ,≤ 0.2
17,PGFR,≤ 0.2
18,SHTD,≤ 0.2
19,LLMI,≤ 0.2
20,VQKS,≤ 0.2
21,AIAN,≤ 0.2
22,QLTM,≤ 0.2
23,APSE,≤ 0.2
24,RSTN,≤ 0.2
25,RLPC,≤ 0.2
26,QYLS,0.256

row,Variant,one-hybrid fitness for binding NBS DNA
1,HQCC,≤ 0.2
2,TPML,≤ 0.2
3,LWDW,≤ 0.2
4,RYFM,≤ 0.2
5,LYIT,≤ 0.2
6,LSLN,≤ 0.2
7,YPNV,≤ 0.2
8,QFNF,≤ 0.2
9,NPIG,≤ 0.2
10,LRPT,≤ 0.2
11,HSCC,≤ 0.2
12,ISNA,≤ 0.2
13,LASV,≤ 0.2
14,SKMC,≤ 0.2
15,KNAD,≤ 0.2
16,TAGT,≤ 0.2
17,VQKF,≤ 0.2
18,QGPY,≤ 0.2
19,SEWS,≤ 0.2
20,WRAA,≤ 0.2
21,PGFW,≤ 0.2
22,RGNN,≤ 0.2
23,LFYS,≤ 0.2
24,RQYL,≤ 0.2
25,NCPI,≤ 0.2
26,FSMD,≤ 0.2

row,Variant,one-hybrid fitness for binding NBS DNA
1,TTKW,≤ 0.2
2,HHFF,≤ 0.2
3,DPAT,≤ 0.2
4,SMEA,≤ 0.2
5,KCGL,≤ 0.2
6,LYYI,≤ 0.2
7,KFNY,≤ 0.2
8,ICKM,≤ 0.2
9,RANM,≤ 0.2
10,PVDV,≤ 0.2
11,QQDW,≤ 0.2
12,LSNC,≤ 0.2
13,NCAC,≤ 0.2
14,DWSI,≤ 0.2
15,SGAW,≤ 0.2
16,RCKS,0.612
17,RAVI,≤ 0.2
18,RTCG,≤ 0.2
19,DFIG,≤ 0.2
20,TAVQ,≤ 0.2
21,HRWN,≤ 0.2
22,TLMY,≤ 0.2
23,STGF,≤ 0.2
24,MTRY,≤ 0.2
25,TVLG,≤ 0.2
26,CSNH,≤ 0.2

row,Variant,one-hybrid fitness for binding NBS DNA
1,MRES,≤ 0.2
2,LENT,≤ 0.2
3,RIKT,0.623
4,LRQV,≤ 0.2
5,EMHT,≤ 0.2
6,GMFT,≤ 0.2
7,CYLN,≤ 0.2
8,RHKS,0.57
9,ANVY,≤ 0.2
10,HTPC,≤ 0.2
11,NLDR,≤ 0.2
12,IFAT,≤ 0.2
13,RGHE,≤ 0.2
14,TMTN,≤ 0.2
15,SKNR,≤ 0.2
16,DTST,≤ 0.2
17,KFVF,≤ 0.2
18,KANG,≤ 0.2
19,RPRT,≤ 0.2
20,QSWV,≤ 0.2
21,SHAC,≤ 0.2
22,IQQR,≤ 0.2
23,RARA,0.309
24,PDKT,≤ 0.2
25,VNKS,≤ 0.2
26,ADSF,≤ 0.2

row,Variant,one-hybrid fitness for binding NBS DNA
1,ITNH,≤ 0.2
2,DQSR,≤ 0.2
3,TFGG,≤ 0.2
4,PYTM,≤ 0.2
5,YNQR,≤ 0.2
6,MRVS,≤ 0.2
7,HDSR,≤ 0.2
8,TYQG,≤ 0.2
9,RNVH,≤ 0.2
10,SWLR,≤ 0.2
11,KTKT,0.396
12,PVGG,≤ 0.2
13,LNKC,≤ 0.2
14,ATPF,≤ 0.2
15,EMGG,≤ 0.2
16,EWTS,≤ 0.2
17,TVFT,≤ 0.2
18,DRGH,≤ 0.2
19,NIPW,≤ 0.2
20,QDDF,≤ 0.2
21,FGCG,≤ 0.2
22,QKNA,0.378
23,MYTG,≤ 0.2
24,HMIC,≤ 0.2
25,QNPL,≤ 0.2
26,RTHN,≤ 0.2

row,Variant,one-hybrid fitness for binding NBS DNA
1,TVRV,≤ 0.2
2,ETGA,≤ 0.2
3,QCVD,≤ 0.2
4,GESG,≤ 0.2
5,TGTL,≤ 0.2
6,QCRQ,0.527
7,IRND,≤ 0.2
8,KAGA,≤ 0.2
9,MVET,≤ 0.2
10,LRNM,≤ 0.2
11,HSTL,≤ 0.2
12,RNEW,≤ 0.2
13,PVMI,≤ 0.2
14,LFDQ,≤ 0.2
15,HMMS,≤ 0.2
16,ALIS,≤ 0.2
17,IPGG,≤ 0.2
18,TPNW,≤ 0.2
19,STEK,≤ 0.2
20,LGDK,≤ 0.2
21,NAWC,≤ 0.2
22,AIRH,≤ 0.2
23,RIHQ,≤ 0.2
